114 sequences from the supplement of paper PMC3724861 can be followed below.

This is one part of the list.

The subject of this test is T1, Caupolican (Caup) homeodomain DNA-binding domain.
T1 sequence: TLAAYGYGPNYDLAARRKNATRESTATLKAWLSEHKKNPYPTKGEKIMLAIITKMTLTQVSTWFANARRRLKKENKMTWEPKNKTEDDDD
Briefly: PBM E-score (8-mer, recovered from the published 9-mer minima) (E-score (dimensionless, -0.5 to 0.5)); Drosophila protein; higher = stronger relative binding preference, active = 0.31 or more. The procedure: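 Protein binding microarray (PBM): in vitro transcribed/translated Caupolican (Caup) homeodomain DNA-binding domain (residues 214-303) applied at 100 nM to a universal 8-mer PBM array (Agilent AMADID 015681). The 8-mer enrichment score (E-score, range -0.5 to 0.5) was computed, and each 9-mer score is the minimum E-score of its two constituent 8-mers. The E-score is the same for a 9-mer and its reverse complement; 0.31 is the stated binding threshold.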
Regarding AAGAGATA, the “PBM E-score” value was inactive: 0.0778.

Regarding ATTCGTAC, the “PBM E-score” value was inactive: 0.172.

For TACAATCA, the “PBM E-score” value is no less than 0.235.

For AAATGTAG, the “PBM E-score” value is inactive: 0.0799.

For GATGTTCC, the “PBM E-score” value is inactive: 0.281.

Take ACAGCTCC: the “PBM E-score” value was inactive: -0.0353.

On to TATTGCCA, for which the “PBM E-score” value was inactive: 0.0268.

For the sequence GCGCTGGA, the “PBM E-score” value was inactive: -0.247.

CGAAGTCA: the “PBM E-score” value is inactive: 0.00841.

Consider ATTCGCTC, for which the “PBM E-score” value is inactive: -0.0134.

Consider GCTAATCA, for which the “PBM E-score” value is inactive: 0.0916.

Turning to AAGATGGA, the “PBM E-score” value was inactive: 0.012.

As for AGCGTTGG, the “PBM E-score” value was inactive: -0.059.

Regarding GCTGCCCA, the “PBM E-score” value was inactive: -0.2.

On to ATCGCAAA, for which the “PBM E-score” value is inactive: 0.0617.

Consider GAGCACTA, for which the “PBM E-score” value was inactive: -0.0464.

For the sequence GAGGTATA, the “PBM E-score” value was inactive: 0.0497.

As to TATATGAA, the “PBM E-score” value is inactive: 0.186.

On to AGTATCTG, for which the “PBM E-score” value was inactive: 0.00127.

Turning to ACTGTTGA, the “PBM E-score” value was inactive: 0.0669.

On to ATAGTAGA, for which the “PBM E-score” value was inactive: 0.109.

For the sequence ACGATGCA, the “PBM E-score” value is inactive: 0.0351.

Regarding AGATTCCA, the “PBM E-score” value was inactive: 0.0537.

Regarding AAGACACG, the “PBM E-score” value was no less than 0.279.

Consider AGTCCGTC, for which the “PBM E-score” value is inactive: -0.0684.

For AAGTTCCT, the “PBM E-score” value was inactive: 0.0323.

For AGTACTAA, the “PBM E-score” value is inactive: 0.232.

In the case of CCGCACGG, the “PBM E-score” value was inactive: -0.183.

For CAGGTTGG, the “PBM E-score” value was inactive: -0.0285.

On to ACAATGCA, for which the “PBM E-score” value was inactive: 0.223.

Regarding CCGCCTTA, the “PBM E-score” value is inactive: -0.1.

Take CGAAAGCC: the “PBM E-score” value was inactive: -0.225.

Take CGTGGTTA: the “PBM E-score” value was inactive: 0.112.

Turning to ATGTTCAA, the “PBM E-score” value was active: 0.327.

For CAGTCTGG, the “PBM E-score” value is inactive: -0.174.

ATACGGGC: the “PBM E-score” value is inactive: -0.0901.

On to TGAACAAA, for which the “PBM E-score” value was inactive: 0.131.

For AGGATATG, the “PBM E-score” value is inactive: 0.116.

As for ATTCTATG, the “PBM E-score” value is inactive: 0.155.

With ATACCGAA, the “PBM E-score” value is inactive: 0.0694.

In the case of ACGAGCCC, the “PBM E-score” value is inactive: -0.153.

Regarding GCAGAATA, the “PBM E-score” value is inactive: -0.0476.

For the sequence CAACTCAC, the “PBM E-score” value was inactive: 0.0566.

Consider CCTTCAAG, for which the “PBM E-score” value is inactive: -0.132.

On to AAGGGTAG, for which the “PBM E-score” value is inactive: 0.0343.

For GCTAGTTA, the “PBM E-score” value is inactive: 0.115.

In the case of CATCCAAG, the “PBM E-score” value was inactive: -0.0151.

Consider CCCCTGAA, for which the “PBM E-score” value was inactive: -0.0907.

In the case of ATGTATGG, the “PBM E-score” value is inactive: 0.157.

ATCTATTA: the “PBM E-score” value was inactive: 0.123.

As to AGACCCCC, the “PBM E-score” value is inactive: -0.265.

In the case of CTTTGCCC, the “PBM E-score” value is inactive: -0.142.

As to AGCGCGGA, the “PBM E-score” value is inactive: -0.153.

For the sequence ACTTGCAC, the “PBM E-score” value was inactive: 0.148.

Consider AGACCACC, for which the “PBM E-score” value was inactive: -0.158.

Take AGGCGGCC: the “PBM E-score” value is inactive: -0.228.

Consider AGGTCGAC, for which the “PBM E-score” value was inactive: 0.00284.

As for GAGCGCGC, the “PBM E-score” value is inactive: -0.221.

Regarding GGACCCCC, the “PBM E-score” value was inactive: -0.382.

For the sequence AGGGAGTA, the “PBM E-score” value was inactive: 0.0138.

As to CACGTTGC, the “PBM E-score” value is inactive: 0.0387.

As for AAGTTCAT, the “PBM E-score” value is inactive: 0.0213.

For ACCGTAAA, the “PBM E-score” value was no less than 0.084.

ACTGGCAA: the “PBM E-score” value is inactive: -0.0302.

Regarding GCGCAAAA, the “PBM E-score” value is inactive: -0.0416.

For the sequence AAATGTGG, the “PBM E-score” value was inactive: 0.127.

With AAACGTAT, the “PBM E-score” value is inactive: 0.0892.

As to ATTTAGTA, the “PBM E-score” value is inactive: 0.151.

For the sequence GGATTAAA, the “PBM E-score” value was inactive: 0.0416.

In the case of GCGGTTGA, the “PBM E-score” value is inactive: -0.00524.

In the case of GGCCAGAC, the “PBM E-score” value was inactive: -0.0954.

On to CCTTAGCA, for which the “PBM E-score” value is inactive: -0.156.

With AGAACTGA, the “PBM E-score” value was no less than 0.0475.

Consider GCGATACC, for which the “PBM E-score” value was inactive: -0.168.

On to ATCGACGC, for which the “PBM E-score” value is inactive: 0.0422.

Turning to TCTGGCCA, the “PBM E-score” value was inactive: -0.0807.

ATGGGGCG: the “PBM E-score” value is inactive: -0.144.

AATTCCAC: the “PBM E-score” value was inactive: 0.0287.

For the sequence AATGATAA, the “PBM E-score” value is inactive: 0.141.

As for ACACTCCT, the “PBM E-score” value was inactive: 0.0379.

As to GGCCAACC, the “PBM E-score” value was inactive: -0.179.

Take TATACGAA: the “PBM E-score” value is inactive: 0.122.

On to CATCGGTC, for which the “PBM E-score” value was inactive: -0.0743.

With CCAGCGCG, the “PBM E-score” value is inactive: -0.243.

As to GCAAGAAC, the “PBM E-score” value is inactive: 0.00872.

TCAATTGA: the “PBM E-score” value was inactive: -0.0145.

Turning to GCGATCCC, the “PBM E-score” value is inactive: -0.142.

For the sequence GCGCCCGC, the “PBM E-score” value was inactive: -0.31.

Take CTCTCGCA: the “PBM E-score” value is inactive: -0.108.

For the sequence CCCAAGAC, the “PBM E-score” value was inactive: -0.0814.

Consider AACTGAAA, for which the “PBM E-score” value is inactive: 0.069.

With GCCCATCA, the “PBM E-score” value is inactive: -0.1.

On to AGACCTTC, for which the “PBM E-score” value is inactive: -0.138.

On to CCTGACTC, for which the “PBM E-score” value was inactive: -0.114.

Turning to CAGAGATG, the “PBM E-score” value is inactive: 0.129.

CATCTTCA: the “PBM E-score” value is inactive: -0.0118.

Take ACGACGAT: the “PBM E-score” value is inactive: 0.0412.

Turning to CGAGCACC, the “PBM E-score” value is inactive: -0.16.

Regarding CAGGATTA, the “PBM E-score” value is inactive: 0.0313.

GTATCAAC: the “PBM E-score” value was inactive: 0.182.

Turning to ATCAAGGG, the “PBM E-score” value is inactive: 0.0187.

As for CTTGGGCC, the “PBM E-score” value is inactive: -0.297.

Regarding AAATATGG, the “PBM E-score” value was inactive: 0.0773.

In the case of AGGGAACA, the “PBM E-score” value is inactive: 0.162.

On to AACTAAAG, for which the “PBM E-score” value was inactive: 0.173.

On to ACTGAGAT, for which the “PBM E-score” value was inactive: 0.0602.

Take CTTGTCGC: the “PBM E-score” value is inactive: 0.254.

Consider TATCGAAA, for which the “PBM E-score” value is inactive: 0.109.

Consider TACGCATA, for which the “PBM E-score” value is no less than 0.154.

Regarding CCCACAGG, the “PBM E-score” value was inactive: -0.142.

Regarding CCGCTTAG, the “PBM E-score” value was inactive: -0.153.

As for AAACATTA, the “PBM E-score” value is inactive: 0.233.

Turning to CCTACAGC, the “PBM E-score” value is inactive: -0.074.

Turning to TCTAACCA, the “PBM E-score” value is inactive: 0.133.
